# Measured values from PubChem BioAssay (NCATS).
# “And” between values parts separate entries of the source, which are not always exact repeats. Identical values can stand only once. This list was built around the results that the source calls inconclusive (neither active nor inactive); the mix of calls is not that of the screen. For part of these data: Potencies of inconclusive entries are doubtful fits and often do not repeat. Some structures have more than one record in an assay (separate samples or runs), and their calls can disagree. The source made the active and inactive calls. Calls come from the whole dose curve; as a rule, active = well fitted curve in the direction sought with a large enough effect; inconclusive = small, poorly fitted or top-dose-only effect, or another doubt; inactive = no such curve, though single readings can be large; an effect the other way counts as inactive or inconclusive.
# Experiments:
# [1] = qHTS of pediatric cancer cell lines to identify multiple opportunities for drug repurposing: Confirmatory screen for SK-N-SH cells (AID 1347129); details: SK-N-SH neuroblastoma cell viability; series mostly up to 46.1 µM;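 note: cells exposed to compound for 48 h before viability read; nearly all actives have a fitted effect of over 60% in size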
# Outline: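 Viability after 48 h compound treatment at 37C, 500-1,000 cells/well, read as ATP luminescence with CellTiter-Glo. Primary screens used 11-point (MIPE, 0.78 nM-46 µM) or 8-point (NPC, 0.59 nM-46 µM) final concentrations; follow-up screens used 11-point dilutions.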
# [2] = biological target: N-terminal Xaa-Pro-Lys N-methyltransferase 1 (Homo sapiens) (UniProt Q9BV86); test: qHTS Assay for Inhibitors of N-terminal methyltransferase 1 (NTMT1): LOPAC validation of the NTMT1 SAHH-coupled ThioGlo3 Assay (AID 1347143); details: recombinant NTMT1, SAHH-coupled ThioGlo3 fluorescence; series mostly up to 114 µM;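 note: SAH from peptide methylation measured as thiol fluorescence via SAHH coupling and ThioGlo3; nearly all actives have a fitted effect of over 70% in size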
# Outline: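 Recombinant human NTMT1 (125nM) was pre-incubated 1 min at room temperature with compounds over a concentration range, then a mix of 100uM SAM, 10uM SAHH and 15uM ThioGlo3 (concentrations in added reagent) was added. ThioGlo3 fluorescence (ex 340/em 450nm) after 30 min was normalized to the initial reading.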
# Furin (Homo sapiens) = Furin (Homo sapiens) (UniProt P09958); test: Furin counterscreen qHTS for Zika virus inhibitors (AID 1347149); details: furin enzymatic counterscreen, fluorogenic substrate; series mostly up to 57.5 µM; note: nearly all actives have a fitted effect of over 70% in size
# Outline: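 Fluorogenic cleavage of BOC-RVRR-AMC (2 microM final, Km ~15 µM) was monitored (ex 340, em 450 nm) at 37C after 15 min RT preincubation of 5 nM furin with compounds in HEPES pH 7.0 buffer with CaCl2 and Triton X-100. Percent inhibition was fitted to a 4-parameter Hill curve.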
# [3] = system: Zika virus NS2B-NS3 protease (unlinked); test: Optimization of GU AMC qHTS for Zika virus inhibitors: Unlinked NS2B-NS3 protease assay (AID 1347151); details: recombinant ZIKV NS2B-NS3 protease, fluorogenic AMC substrate; series mostly up to 52.5 µM; note: nearly all actives have a fitted effect of over 80% in size
# Outline: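 In this qHTS, compounds acted on 25 nM unlinked Zika NS2B–NS3 in pH 8.0 Tris/Tween buffer. Cleavage of an AMC peptide ran 15 min at room temperature, to about 20% conversion.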
# [4] = system: Zika virus NS2B-NS3 protease; test: Primary screen GU AMC qHTS for Zika virus inhibitors (AID 1347154); details: Zika NS2B-NS3 unlinked protease, AMC fluorogenic substrate; series mostly up to 54.1 µM; note: nearly all actives have a fitted effect of over 70% in size
# Outline: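 Unlinked Zika NS2B hydrophilic domain–NS3 protease complex at 25 nM in 10 mM Tris-HCl pH 8.0, 0.01% Tween 20, with an AMC peptide substrate. Fluorescence change (340/450 nm) over 15 min at room temperature, normalized to controls, fitted to 4-parameter Hill.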
# [5] = system: Zika virus NS2B-NS3 protease (linked construct); test: Confirmatory screen NINDS AMC qHTS for Zika virus inhibitors (AID 1347152); details: Purified linked NS2B-NS3, AMC substrate fluorescence; series mostly up to 56.6 µM; note: nearly all actives have a fitted effect of over 70% in size
# Outline: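 Concentration-response confirmation used the NINDS linked protease (NS2B hydrophilic domain joined to NS3 protease domain), 1 nM, with a 15-min compound preincubation. Substrate, Nle-KRR-AMC at 10 microM, was read by UV fluorescence before and after 15 min.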
# [6] = system: Zika virus NS2B-NS3 protease (unlinked complex); test: Confirmatory screen GU AMC qHTS for Zika virus inhibitors (AID 1347153); details: Recombinant NS2B-NS3 protease, AMC substrate fluorescence; series mostly up to 57.1 µM; note: nearly all actives have a fitted effect of over 70% in size;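 for Potency: enzyme at 25 nM with substrate at 10 µM below its Km of 18.3 µM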
# Outline: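 Noncovalent NS2B hydrophilic domain/NS3 protease complex (25 nM) in 10 mM Tris-HCl pH 8.0, 0.01% Tween 20 was preincubated 15 min at room temperature with compounds. Then 10 µM AMC substrate (Km 18.3 µM) was added; fluorescence was read over 15 min and fitted to a 4-parameter Hill equation.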
# [7] = ZIKV-mCherry secondary qHTS for Zika virus inhibitors (AID 1347158); details: Vero cells, ZIKV-mCherry infection imaging, 48-72 h; series mostly up to 49.2 µM
# Outline: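 Vero cells, 5,000/well, plated overnight at 37 °C, then compound added and infected with recombinant ZIKV-mCherry at MOI 1 for 48-72 h. PFA-fixed, Hoechst nuclear stain, high-content imaging; cells with mCherry intensity above 450 RFU scored infected, reported as percent infection.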
# Potency is the fitted concentration of half-maximal effect; tags give direction and shape of the fitted curve.
# UniProt Q9BV86, sequence (Q9BV86 whole entry, looked up): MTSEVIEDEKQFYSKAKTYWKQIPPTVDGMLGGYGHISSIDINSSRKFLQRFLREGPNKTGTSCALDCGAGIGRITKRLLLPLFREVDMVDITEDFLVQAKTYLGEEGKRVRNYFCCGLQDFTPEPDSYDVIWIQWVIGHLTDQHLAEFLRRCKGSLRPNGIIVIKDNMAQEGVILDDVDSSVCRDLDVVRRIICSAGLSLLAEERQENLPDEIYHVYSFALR
# UniProt P09958, sequence (P09958 whole entry, looked up): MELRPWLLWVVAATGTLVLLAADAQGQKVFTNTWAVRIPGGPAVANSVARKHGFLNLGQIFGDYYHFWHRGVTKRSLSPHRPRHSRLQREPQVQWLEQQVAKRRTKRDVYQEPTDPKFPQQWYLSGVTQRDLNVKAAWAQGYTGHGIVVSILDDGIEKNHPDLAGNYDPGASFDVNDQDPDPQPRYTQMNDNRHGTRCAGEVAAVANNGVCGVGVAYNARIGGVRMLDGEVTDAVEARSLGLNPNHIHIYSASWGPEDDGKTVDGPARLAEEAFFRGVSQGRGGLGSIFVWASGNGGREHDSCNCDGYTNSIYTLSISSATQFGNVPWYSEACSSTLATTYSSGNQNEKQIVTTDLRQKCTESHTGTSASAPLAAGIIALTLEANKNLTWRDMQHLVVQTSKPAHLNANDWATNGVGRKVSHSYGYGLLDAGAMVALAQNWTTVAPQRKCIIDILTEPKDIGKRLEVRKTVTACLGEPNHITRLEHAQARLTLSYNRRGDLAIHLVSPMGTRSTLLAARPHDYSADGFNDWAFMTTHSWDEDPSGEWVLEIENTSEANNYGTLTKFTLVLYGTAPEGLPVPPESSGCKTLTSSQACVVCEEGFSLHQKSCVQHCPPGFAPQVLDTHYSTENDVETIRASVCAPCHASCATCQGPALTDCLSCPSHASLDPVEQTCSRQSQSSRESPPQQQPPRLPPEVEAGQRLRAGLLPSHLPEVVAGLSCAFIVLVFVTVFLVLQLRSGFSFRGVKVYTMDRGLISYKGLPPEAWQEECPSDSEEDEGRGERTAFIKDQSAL
compound,measurement,setting,value
COc1cccc2c(NCc3ccccc3)nc(-n3c(N)nc4ccccc43)nc12,Potency,[1],active: 8.33 µM
COC(=O)Nc1nc2ccc(C(=O)c3cccs3)cc2[nH]1,Potency,[1],"inconclusive: 5.9 µM [cytotoxic, partial curve]"
same,Potency,[2],"inconclusive: 22.4 µM [inhibitor, full curve]"
OCc1ccc(-c2nn(Cc3ccccc3)c3ccccc23)o1,Potency,Furin (Homo sapiens),active: 27.1 µM
same,Potency,[3],active: 23.8 µM
same,Potency,[4],active: 30.4 µM
CC(CN1c2ccccc2Sc2ccccc21)N(C)C (configuration not stated),Potency,[2],active: 50.1 µM
O=S(=O)(O)c1ccc2cc(N=Nc3cc(S(=O)(=O)O)c4cccnc4c3O)ccc2c1,Potency,Furin (Homo sapiens),inactive
same,Potency,[5],"inconclusive: 17.5 µM [inhibitor, partial curve]"
same,Potency,[6],"inconclusive: 1.39 µM [inhibitor, full curve]"
same,Potency,[4],"inconclusive: 3.83 µM [inhibitor, full curve]"
CCc1c(C)[nH]c2c1C(=O)C(CN1CCOCC1)CC2 (configuration not stated),Potency,[2],"inconclusive: 56.2 µM [inhibitor, partial curve]"
same,Potency,[3],inactive
CC(C)C[C@H]1C(=O)N2CCC[C@H]2[C@]2(O)O[C@](NC(=O)[C@@H]3C=C4c5cccc6[nH]c(Br)c(c56)C[C@H]4N(C)C3)(C(C)C)C(=O)N12,Potency,Furin (Homo sapiens),"inconclusive: 4.29 µM [inhibitor, full curve]"
same,Potency,[6],inactive
NC[C@H](O)c1ccc(O)c(O)c1,Potency,[2],"inconclusive: 50.1 µM [inhibitor, partial curve, poor fit]"
same,Potency,[4],"active: 10.2 µM and inconclusive: 26.7 µM [inhibitor, partial curve, poor fit] and active: 11.9 µM"
O=C1NCN(c2ccccc2)C12CCN(CCCC(c1ccc(F)cc1)c1ccc(F)cc1)CC2,Potency,[2],inactive
same,Potency,[4],"inconclusive: 25.6 µM [inhibitor, partial curve]"
CN(C)CCCN1c2ccccc2Sc2ccc(Cl)cc21,Potency,[2],"inconclusive: 39.8 µM [inhibitor, partial curve]"
same,Potency,[3],inactive
Cc1cc(-c2ccc(N=Nc3c(S(=O)(=O)O)cc4cc(S(=O)(=O)O)cc(N)c4c3O)c(C)c2)ccc1N=Nc1c(S(=O)(=O)O)cc2cc(S(=O)(=O)O)cc(N)c2c1O,Potency,Furin (Homo sapiens),"inconclusive: 13.2 µM [inhibitor, full curve]"
same,Potency,[7],inactive
O=S(=O)(O)c1ccc2c(N=Nc3ccc(S(=O)(=O)O)c4ccccc34)c(O)c(S(=O)(=O)O)cc2c1,Potency,Furin (Homo sapiens),"inconclusive: 87.9 µM [inhibitor, partial curve, poor fit]"
same,Potency,[5],"inconclusive: 35 µM [inhibitor, partial curve]"
Cc1cc(Cl)ccc1OCCCC(=O)NO,Potency,[2],"inconclusive: 39.8 µM [inhibitor, partial curve]"
COCC(=O)O[C@]1(CCN(C)CCCc2nc3ccccc3[nH]2)CCc2cc(F)ccc2[C@@H]1C(C)C,Potency,[2],"inconclusive: 56.2 µM [inhibitor, partial curve]"
OCCN1CCN(CCCN2c3ccccc3Sc3ccc(Cl)cc32)CC1,Potency,[2],"inconclusive: 44.7 µM [inhibitor, partial curve]"
OCCN1CCN(CCCN2c3ccccc3C=Cc3ccccc32)CC1,Potency,[2],"inconclusive: 56.2 µM [inhibitor, partial curve]"
COc1cc(NS(C)(=O)=O)ccc1Nc1c2ccccc2nc2ccccc12,Potency,[2],active: 50.1 µM
NNCCc1ccccc1,Potency,[2],"inconclusive: 79.4 µM [inhibitor, partial curve]"
Nc1nc(N)c2nc(CNc3ccc(C(=O)NC(CCC(=O)O)C(=O)O)cc3)cnc2n1 (configuration not stated),Potency,Furin (Homo sapiens),active: 19.1 µM
same,Potency,[6],"inconclusive: 24.1 µM [inhibitor, partial curve]"
same,Potency,[4],active: 21.5 µM
Cc1cc2c(C(C)C)c(O)c(O)c(C=O)c2c(O)c1-c1c(C)cc2c(C(C)C)c(O)c(O)c(C=O)c2c1O,Potency,Furin (Homo sapiens),"inconclusive: 12.1 µM [inhibitor, partial curve]"
same,Potency,[4],"inconclusive: 2.67 µM [inhibitor, full curve]"
same,Potency,[7],active: 2.51 µM
Cc1cc(SCc2sc(-c3ccc(C(F)(F)F)cc3)nc2C)ccc1OCC(=O)O,Potency,Furin (Homo sapiens),"inconclusive: 27.1 µM [inhibitor, partial curve]"
same,Potency,[5],"active: 19.7 µM and inconclusive: 17.1 µM [inhibitor, partial curve]"
same,Potency,[6],"inconclusive: 22.1 µM [inhibitor, full curve] and inconclusive: 21.5 µM [inhibitor, partial curve]"
same,Potency,[4],"inconclusive: 19.2 µM [inhibitor, partial curve]"
same,Potency,[7],inactive
